# About 12,000 (3.5%) of roughly 340,000 compounds were called active. Inconclusive results, whose numbers are uncertain, are shown with a selection of clear calls. Calls follow the shape of the dose curve; as a rule, active = well fitted inhibition curve with a large enough effect; inconclusive = small, poorly fitted or top-dose-only effect, or another doubt; inactive = no such curve, though single readings can be large or run the other way. Potencies of inconclusive entries are left out as doubtful fits.
# Experiment: qHTS Assay for Inhibitors of Hepatitis C Virus (HCV)
# Conditions: Huh7.5.1 HCVcc-Cre (HCVcc is cell-culture hepatitis C virus) infection, luciferase reporter, 44 h; series mostly up to 41.8 µM
# How it was run: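 HCVcc-Cre virus at an moi near 0.5 was added right after compound to cells cultured 4 h from seeding (1,000 cells/well). Luciferase activity was determined 44 h later, 15 min after substrate addition at RT.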
# Potency is read from the fitted curve at half-maximal effect; tags tell the direction and shape of the fitted curve.
row,SMILES,Potency
1,Cc1ccc(-c2nc(N(C)C3CCN(C)CC3)c3ccccc3n2)cc1,"inconclusive [inhibitor, single point]"
2,CN(CC(=O)Nc1ccc(Cl)c(C(F)(F)F)c1)C(=O)CC1Sc2ccccc2NC1=O (centres undefined),"inconclusive [inhibitor, single point]"
3,Cc1ccc(C)c(CN2CCC(n3nccc3NC(=O)CCCc3ccccc3)CC2)c1,"inconclusive [inhibitor, single point]"
4,COc1ccc(S(=O)(=O)Nc2nc3c(s2)C(=O)CC(C)(C)C3)cc1,inactive
5,COc1ccc(OC)c(Nc2ncnc3ccccc23)c1,"inconclusive [inhibitor, full curve, poor fit]"
6,O=C(CN1C(=O)NC2(CCCCC2)C1=O)N1CCN(S(=O)(=O)c2cccc([N+](=O)[O-])c2)CC1,inactive
7,COc1ccc(-c2cc(C(=O)N/N=C/c3ccc(OC)c(COCC(F)(F)C(F)F)c3)c3ccccc3n2)c(OC)c1,"inconclusive [inhibitor, partial curve]"
8,CC1CC(C)CN(C(=O)c2cc3ccccc3o2)C1 (centres undefined),"inconclusive [inhibitor, single point]"
9,Cc1[nH]c2ccccc2c1C(=O)/C=C\c1ccccc1Cl,"inconclusive [inhibitor, single point]"
10,CC(C)(C)c1ccc(C(=O)NCC(=O)N2CCC3(CC2)NCCc2[nH]cnc23)cc1,inactive
11,O=C(Nc1cccc(Cl)c1)C1C2CCC3C(CCC21)C3(Cl)Cl (centres undefined),"inconclusive [inhibitor, single point]"
12,O=C1COc2ccc(C(=O)c3ccccc3C(=O)NCc3ccccc3)cc2N1,"inconclusive [inhibitor, partial curve]"
13,NC(=O)c1nn2c(C(F)(F)F)cc(-c3ccccc3)nc2c1Br,active: 0.891 µM
14,Oc1cccc(CCC2CCCCN2Cc2cn[nH]c2-c2ccc3c(c2)OCO3)c1 (centres undefined),inactive
15,Cc1c(CN2CCCC(C(=O)c3cccc(OC(C)C)c3)C2)c(=O)n(-c2ccccc2)n1C (centres undefined),inactive
16,Cc1cc(OCC(=O)Nc2ccccc2N2CCCC2)ccc1C(C)C,"inconclusive [inhibitor, partial curve]"
17,COc1ccc(CC(=O)N/N=C(\C)CC(=O)Nc2ccc3c(c2)OCCO3)cc1,"inconclusive [inhibitor, single point]"
18,COc1ccc2[nH]cc(CCNC(C)=O)c2c1,"inconclusive [inhibitor, partial curve, poor fit]"
19,COc1ccc2sc(-c3ccccc3OC)c(-c3ccc(OCCN4CCOCC4)cc3)c2c1,"inconclusive [inhibitor, single point]"

# Reference: PubChem BioAssay AID651820 (National Center for Advancing Translational Sciences (NCATS), 2012)
